# Results reported in the supplement of paper PMC10037445.
# Whole data set: some 2,900 compounds, median “IRF Lucia reporter activity, fold change vs agonist alone” near 0.9, cut for the highest 2% near 2.8. This is one part of the list.
# Legend:
# [1] = test system: RAW-Dual; assay: IRF Lucia reporter activity, fold change vs agonist alone; cytotoxicity flag (confluency mask): not cytotoxic; higher = enhanced IRF activity
# Procedure, shortened: (§1)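 Library stock was pin-tooled at 50 nL into 384-well plates of RAW-Dual macrophages (50,000 cells/well, DMEM), followed 1 h later by a PRR agonist, and the cells were kept at 37 °C, 5% CO2. Supernatant collected after 20 hours was read for IRF by QuantiLuc luminescence and for NF-κB by QuantiBlue absorbance at 620 nm. Reporter activity is fold change over agonist-alone wells, and a well counted as cytotoxic when its IncuCyte confluency was below 70% of agonist controls in both mask sets.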
# [2] = test system: RAW-Dual; assay: IRF Lucia reporter activity, fold change vs agonist alone; cytotoxicity flag (confluency mask): cytotoxic (confluency <70% of control); higher = enhanced IRF activity
# Procedure, shortened: as §1
# [3] = test system: RAW-Dual; assay: IRF Lucia reporter activity, fold change vs agonist alone; higher = enhanced IRF activity; details: library stock concentration (final ~1000-fold dilution): 10 mM, agonist: MPLA (TLR4) […]
# Procedure, shortened: as §1
# [4] = agonist: 3'3'-cGAMP (STING) 10 ug/mL
# [5] = cytotoxicity flag (confluency mask): cytotoxic (confluency <70% of control)
# [6] = cytotoxicity flag (confluency mask): not cytotoxic
structure (smiles),measurement,setting,value
CCOP(=O)(OCC)C(=Cc1cc(C(C)(C)C)c(O)c(C(C)(C)C)c1)P(=O)(OCC)OCC (library stock concentration (final ~1000-fold dilution): 10 mM),IRF Lucia reporter activity,[1]; [4],0.416
same,IRF Lucia reporter activity,[1]; agonist: LPS (TLR4) 0.1 ug/mL,1.28
Cc1cc2c(F)c(Oc3ncnn4cc(OCC(C)OC(=O)C(C)N)c(C)c34)ccc2[nH]1 (configuration not stated) (library stock concentration (final ~1000-fold dilution): 10 mM),IRF Lucia reporter activity,[2]; [4],0.967
same,IRF Lucia reporter activity,[2]; agonist: LPS (TLR4) 0.1 ug/mL,2.13
Cc1cc2c(F)c(Oc3ncnn4cc(OCC(C)OC(=O)C(C)N)c(C)c34)ccc2[nH]1 (configuration not stated),IRF Lucia reporter activity,[3]; [5],2.88
Cc1ccc2c(=O)c3cccc(CC(=O)O)c3oc2c1C,IRF Lucia reporter activity,[3]; [6],0.965
Cc1ccc2c(=O)c3cccc(CC(=O)O)c3oc2c1C (library stock concentration (final ~1000-fold dilution): 10 mM),IRF Lucia reporter activity,[1]; [4],1.08
same,IRF Lucia reporter activity,[1]; agonist: LPS (TLR4) 0.1 ug/mL,6.08
COc1ccc(CC2c3cc(OC)c(OC)cc3CC[N+]2(C)CCC(=O)OCCCCCOC(=O)CC[N+]2(C)CCc3cc(OC)c(OC)cc3C2Cc2ccc(OC)c(OC)c2)cc1OC (configuration not stated) (library stock concentration (final ~1000-fold dilution): 10 mM),IRF Lucia reporter activity,[1]; [4],0.641
same,IRF Lucia reporter activity,[1]; agonist: LPS (TLR4) 0.1 ug/mL,0.674
COc1ccc(CC2c3cc(OC)c(OC)cc3CC[N+]2(C)CCC(=O)OCCCCCOC(=O)CC[N+]2(C)CCc3cc(OC)c(OC)cc3C2Cc2ccc(OC)c(OC)c2)cc1OC (configuration not stated),IRF Lucia reporter activity,[3]; [6],0.872
CC(C(=O)O)c1ccc2c(c1)CC(=O)c1ccccc1S2 (configuration not stated),IRF Lucia reporter activity,[3]; [6],1.19
CC(C(=O)O)c1ccc2c(c1)CC(=O)c1ccccc1S2 (configuration not stated) (library stock concentration (final ~1000-fold dilution): 10 mM),IRF Lucia reporter activity,[1]; [4],1.13
same,IRF Lucia reporter activity,[1]; agonist: LPS (TLR4) 0.1 ug/mL,1.11
CN(CCNc1ccnc2cc(Cl)ccc12)CCNc1ccnc2cc(Cl)ccc12.Cl.Cl.Cl (library stock concentration (final ~1000-fold dilution): 10 mM),IRF Lucia reporter activity,[2]; [4],0.512
same,IRF Lucia reporter activity,[2]; agonist: LPS (TLR4) 0.1 ug/mL,0.312
COc1ccc2c(-c3ccc(O)c(C)c3)ccnc2c1 (library stock concentration (final ~1000-fold dilution): .1 mM),IRF Lucia reporter activity,[1]; [4],0.136
same,IRF Lucia reporter activity,[1]; agonist: LPS (TLR4) 0.1 ug/mL,0.631
COc1cc2c(cc1OC)C1Cc3ccc(OC)c(OC)c3CN1CC2.Cl (configuration not stated),IRF Lucia reporter activity,[3]; [6],1.14
COc1cc2c(cc1OC)C1Cc3ccc(OC)c(OC)c3CN1CC2.Cl (configuration not stated) (library stock concentration (final ~1000-fold dilution): 10 mM),IRF Lucia reporter activity,[1]; [4],1.09
same,IRF Lucia reporter activity,[1]; agonist: LPS (TLR4) 0.1 ug/mL,1.25
COc1cc(O)c2c(=O)cc(-c3ccc(O)cc3)oc2c1 (library stock concentration (final ~1000-fold dilution): 10 mM),IRF Lucia reporter activity,[1]; [4],0.437
same,IRF Lucia reporter activity,[1]; agonist: LPS (TLR4) 0.1 ug/mL,0.862
CCN(CC)CCOC(=O)C(c1ccccc1)c1ccccc1.Cl,IRF Lucia reporter activity,[3]; [6],1.06
CCN(CC)CCOC(=O)C(c1ccccc1)c1ccccc1.Cl (library stock concentration (final ~1000-fold dilution): 10 mM),IRF Lucia reporter activity,[1]; [4],1.17
same,IRF Lucia reporter activity,[1]; agonist: LPS (TLR4) 0.1 ug/mL,1.19
Cc1nc(-c2ccc(OCC(C)C)c(C#N)c2)sc1C(=O)O (library stock concentration (final ~1000-fold dilution): 10 mM),IRF Lucia reporter activity,[1]; [4],1.07
same,IRF Lucia reporter activity,[1]; agonist: LPS (TLR4) 0.1 ug/mL,1.04
Cc1nc(-c2ccc(OCC(C)C)c(C#N)c2)sc1C(=O)O,IRF Lucia reporter activity,[3]; [6],1.08
Cn1cc(-c2cc(Oc3cc(F)c(NC(=O)C4(C(=O)Nc5ccccc5)CC4)cc3F)ccn2)cn1 (library stock concentration (final ~1000-fold dilution): 10 mM),IRF Lucia reporter activity,[1]; [4],0.145
same,IRF Lucia reporter activity,[1]; agonist: LPS (TLR4) 0.1 ug/mL,0.468
CC(C)c1ccc2c(c1)c(SC(C)(C)C)c(CC(C)(C)C(=O)O)n2Cc1ccc(Cl)cc1 (library stock concentration (final ~1000-fold dilution): 10 mM),IRF Lucia reporter activity,[1]; [4],0.678
same,IRF Lucia reporter activity,[1]; agonist: LPS (TLR4) 0.1 ug/mL,0.692
COc1cc(N2CCC(N3CCN(C)CC3)CC2)ccc1Nc1ncnc(Nc2ccccc2S(=O)(=O)C(C)C)n1 (library stock concentration (final ~1000-fold dilution): 10 mM),IRF Lucia reporter activity,[1]; [4],0.66
same,IRF Lucia reporter activity,[1]; agonist: LPS (TLR4) 0.1 ug/mL,1.91
Cc1nc(Nc2ncc(C(=O)Nc3c(C)cccc3Cl)s2)cc(N2CCN(CCO)CC2)n1,IRF Lucia reporter activity,[3]; [5],0.628
Cc1nc(Nc2ncc(C(=O)Nc3c(C)cccc3Cl)s2)cc(N2CCN(CCO)CC2)n1 (library stock concentration (final ~1000-fold dilution): 10 mM),IRF Lucia reporter activity,[2]; [4],0.0732
same,IRF Lucia reporter activity,[2]; agonist: LPS (TLR4) 0.1 ug/mL,0.688
CC(C)(C)c1nc(-c2ccc(NC(=O)Nc3cccc(C(F)(F)F)c3)c3ccccc23)c2c(N)nccn12 (library stock concentration (final ~1000-fold dilution): 10 mM),IRF Lucia reporter activity,[2]; [4],0.0132
same,IRF Lucia reporter activity,[2]; agonist: LPS (TLR4) 0.1 ug/mL,0.0125
CC(C(O)c1ccc(O)cc1)N1CCC(Cc2ccccc2)CC1.CC(C(O)c1ccc(O)cc1)N1CCC(Cc2ccccc2)CC1.O=C(O)C(O)C(O)C(=O)O (configuration not stated) (library stock concentration (final ~1000-fold dilution): 10 mM),IRF Lucia reporter activity,[1]; [4],0.738
same,IRF Lucia reporter activity,[1]; agonist: LPS (TLR4) 0.1 ug/mL,1.53
